Laboratory results from the RNAGym collection of RNA variant scans (doi:10.7554/elife.90254).
The source gives no read counts; variants with many changes may rest on few reads.

B1: LINE1-full (parent)
chain: UACGUAGGUGGUUUUCCCCUGAUAGUGCUAAGGGGGCCUGGAAGUUUGGACUGGGCAGAGCUCAACACAGCGUGGCAAAGUGGCUGUGGCUAGACUGCCUCUCUGGAUUCCUCGUCACUCAGCAGGGCAUCUCUGAGAGAAAUGCC

Variants of: B1
Experiment: self-cleavage, relative activity (ratio to wild type); higher = more cleavage; in vitro, sequencing; the parent is a self-cleaving ribozyme

| Variant | self-cleavage |
| --- | --- |
| G4A C84A A141G | 0.22 |
| G4A C95U U96A | 0.13 |
| G4A G8A U87C U130C | 0.61 |
| G4A G11A A65G C68U | 0.08 |
| G4A G44U U134C | 1.23 |
| G4A G75U U104C | 0.68 |
| G4A U9A A107G | 1.07 |
| G4A U9C U108C | 1.18 |
| G4A U12A A94G U115A | 0.21 |
| G4A U12C A24G U108C A129U | 0 |
| G4A U13C A138G | 0.78 |
| G4A U13C U29C C116U | 0.72 |
| G4A U14A C63U U132C A140G | 0.29 |
| G4A U14C A43G U100A U109C | 0.92 |
| G4A U14C U29C A77G | 1.19 |
| G4A U14C U73C | 1.31 |
| G4A U14C U112C | 0.84 |
| G4A U15C U29A A142G | 0.27 |
| G4A U15C U46C A57U | 0.21 |
| G4A U20A U52C A141G | 1.29 |
| G4A U20A U91A A117G A138U | 0.42 |
| G4A U26C U109A | 1.35 |
| G4A U29C A57U U108C A141G | 0.16 |
| G4A U39A U73A A117U | 1.23 |

| Variant | self-cleavage |
| --- | --- |
| G4A U39C G72A A124G A140G | 0.05 |
| G4A U45C U115A | 1.53 |
| G4A U46C A65C G72A | 0.04 |
| G4A U46C U91C U119C A142G | 0 |
| G4A U52C A69G | 0 |
| G4A U73G A78G A136G | 0.91 |
| G4A U85A G144A | 0.09 |
| G4A U87A A121C | 0.09 |
| G4A U109C U130C A140G | 1.12 |
| G4C A64G A79U | 0.46 |
| G4C C19U U26C A43G U115C G125A | 0.6 |
| G4C G21U G32A G86A | 0.25 |
| G4C U13C C68U U119C | 1.6 |
| G4C U14C A69G | 0.51 |
| G4U A30G A64G | 0.5 |
| G4U A64G A142G | 0.28 |
| G4U U5C G55A U119C | 0.42 |
| G4U U12C U15C U62C | 0.37 |
| G4U U13A U45A A79U U112C U143A | 1.41 |
| G4U U15A A43U U130C | 1.11 |
| G4U U20C U26A G35C U73A A124G | 0.72 |
| G4U U47C A121G A141G | 1.53 |
| G4U U102C U119C A138G A140G | 1.97 |
| U5A A6G U15C | 0.43 |

| Variant | self-cleavage |
| --- | --- |
| U5A A30C G32U | 0 |
| U5A A31U U119C | 0.8 |
| U5A A42G U45C U52A | 0.77 |
| U5A A42G U52A | 1.07 |
| U5A A42G U109A A141C | 1.56 |
| U5A A43G G72U U109C | 0.41 |
| U5A A64G U100A | 0.28 |
| U5A A67U U73A U104C | 0.2 |
| U5A A69G G83A | 0.15 |
| U5A A69G U112C | 0.84 |
| U5A A69U A121G | 0.18 |
| U5A A92G A136G A140G | 0.2 |
| U5A A129G A141G | 0 |
| U5A A138U A140G | 0.63 |
| U5A C111A A141G | 1.51 |
| U5A G35A A138U | 0.34 |
| U5A G35U A64G A67U | 0.02 |
| U5A G35U A64G U130C | 0.14 |
| U5A G41A U115C | 0.86 |
| U5A G48U A138G | 0.51 |
| U5A G55A G89U A92G U115C A140G | 0.06 |
| U5A U9A A142G | 1.09 |
| U5A U9A C19A A142G | 0.71 |
| U5A U9C U12G A67G A138G | 1.31 |

| Variant | self-cleavage |
| --- | --- |
| U5A U9C U13C U73C G75A U115C A121G A141G | 0 |
| U5A U12G A136G | 0.92 |
| U5A U13C A22G A67G U112C | 0 |
| U5A U13C U15C U85C | 0.27 |
| U5A U13C U85C | 0.36 |
| U5A U14A C71U | 0.9 |
| U5A U14C A50U | 0.68 |
| U5A U14C A64U U132G | 0.63 |
| U5A U14C A69U | 0.12 |
| U5A U14C U108C | 1.23 |
| U5A U14C U134C | 0.76 |
| U5A U15C G58A | 0.21 |
| U5A U15C U112C | 1.28 |
| U5A U23A C28A G48C A64U G75U C98G U115C A138G | 0.05 |
| U5A U23C U45A U52A | 1.84 |
| U5A U23G C37U | 0.77 |
| U5A U26A G125A A142G | 0.71 |
| U5A U29A U104C U115C | 0 |
| U5A U39A U45C A78G U96C | 0 |
| U5A U62A A78G U112C | 0.07 |
| U5A U62C C110G | 0.09 |
| U5A U73A U96C A141G | 0.07 |
| U5A U81A C103U U104C | 1.74 |
| U5A U85A U115C A121G | 0.22 |

| Variant | self-cleavage |
| --- | --- |
| U5A U96C C99U U102C | 0 |
| U5A U100A A138G | 0.24 |
| U5A U104C A117G | 0 |
| U5A U108C U119A | 0.75 |
| U5A U109A U115C A142G | 0.74 |
| U5A U115A U132C | 0.91 |
| U5A U115C A136U | 0.77 |
| U5C A6G A69G U96C C128U | 0 |
| U5C A6G U13C A42U | 0.61 |
| U5C A6G U73C A140G | 0 |
| U5C A6U A65G | 0 |
| U5C A6U A92U | 0.61 |
| U5C A6U U119C U132A G137A | 2.04 |
| U5C A22G A57U | 0.68 |
| U5C A22G A78G U119C A129U | 1.37 |
| U5C A24G U130C | 1.84 |
| U5C A30G U108C A141G | 1.41 |
| U5C A42G A43G A59U A67U G75C | 0 |
| U5C A42G A124G A138G | 0.88 |
| U5C A42G C56U A117U | 0.87 |
| U5C A42U C90A A136G | 0.09 |
| U5C A43U U52A A77U A79U | 1.13 |
| U5C A50G A138U | 0.26 |
| U5C A50G U102A G114A A117G C123U A136G A140G | 0.32 |

| Variant | self-cleavage |
| --- | --- |
| U5C A50U U96C G114A | 0.25 |
| U5C A59G A138U | 0.15 |
| U5C A59G U85A A94G A121G | 0 |
| U5C A59U A142C | 0 |
| U5C A64G C123U | 0.09 |
| U5C A65G C113U A140G | 0.09 |
| U5C A67C A136U | 0 |
| U5C A67G A117U | 1.24 |
| U5C A67G C131U | 1.13 |
| U5C A67G U119C | 2.3 |
| U5C A67U A121G | 0 |
| U5C A69G U102C | 0.42 |
| U5C A77G G82A | 2.11 |
| U5C A77G U119A | 1.41 |
| U5C A78G U143C | 0.79 |
| U5C A79C U96C A136U | 1.97 |
| U5C A79G A138G A142G | 2.09 |
| U5C A79G G97A A142G | 0.22 |
| U5C A92G U109C A121G U143A | 0 |
| U5C A107G U109C | 0 |
| U5C A117C A121G | 2.47 |
| U5C A121G U132A | 0.67 |
| U5C C17G U62C U119C | 0.8 |
| U5C C19U U108C | 2.09 |

| Variant | self-cleavage |
| --- | --- |
| U5C C19U U115G G125A A140G A141G | 0.89 |
| U5C C37U A59G A78G U91A | 0.11 |
| U5C C61A U96C G114A A136U A138G | 0.12 |
| U5C C84U A140G | 0.12 |
| U5C G7A A24C U143C | 1.15 |
| U5C G8U U9A U130C | 1.01 |
| U5C G11A U12C U47A U73C G105A U115C G126A | 2.16 |
| U5C G27A U108C | 0.77 |
| U5C G32A G126C A138G | 0.94 |
| U5C G35A U47C U102C C103U | 1.96 |
| U5C G40A U46C A138G | 1.34 |
| U5C G41U C66A U104G | 0.07 |
| U5C G41U U115C | 1.48 |
| U5C G44A A79G G93U | 0.1 |
| U5C G53A U62C G125U | 0.04 |
| U5C G80C U115A U119C | 0.48 |
| U5C G82A U108C | 2.32 |
| U5C G127U U143A | 1.06 |
| U5C U9C U26A U91C | 1.02 |
| U5C U9C U47C U62G A138G | 0 |
| U5C U12A A50G A129G A136U | 1.44 |
| U5C U12A U73C U102C | 0.84 |
| U5C U12C U15A U102C U115A U130C | 2.3 |
